# Inconclusive results are not listed. Unless noted, calls follow the shape of the dose curve; as a rule, active = well fitted curve in the direction sought with a large enough effect in the repeat runs; inconclusive = weak or mixed curves; inactive = no such curve, though single readings can be large; an effect the other way counts as inactive or inconclusive. Where a structure was tested more than once in an assay, its records may differ in their call. Some entries of the source have several records that differ or are many. The other results are left out here. An entry can have further records. The values listed for one entry repeat one measurement across runs, samples, wells, individuals or studies. A tag in brackets gives the origin of a value. A, B and so on number the origins entry by entry.
# Assays:
# [1] = qHTS assay to identify small molecule antagonists of the thyroid receptor (TR) signaling pathway (AID 743065); also: nearly all actives have a fitted effect of over 55% in size
# Summary of the method: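 Antagonism measured as loss of luciferase signal in GH3 cells stably carrying a TRE-luciferase reporter, co-treated with compound and T3 (1 nM final) for 23.5 h at 37 C. Viability was read in the same well by CellTiter-Fluor.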
# [2] = qHTS assay to identify small molecule antagonists of the peroxisome proliferator-activated receptor gamma (PPARg) signaling pathway - cell viability counter screen (AID 743194); also: nearly all actives have a fitted effect of over 55% in size
# Summary of the method: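 Viability was measured as CellTiter-Glo luminescence in GeneBLAzer PPARg UAS-bla HEK293H cells. These cells had been exposed 17 h at 37 C to compounds together with rosiglitazone at 50 nM final, with the beta-lactamase readout taken in the same wells.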
# [3] = qHTS assay for small molecules that induce genotoxicity in human embryonic kidney cells expressing luciferase-tagged ATAD5 - cell viability (AID 651634; calls by dose curve; also: nearly all actives have a fitted effect of over 25% in size)
# Summary of the method: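 HEK293T ATAD5-luc cells, 2,000/well; compound 15.5 hr, 37C/5% CO2; CellTiter-Fluor 30 min, 37C; fluorescence read.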
# [4] = qHTS assay to identify small molecule antagonists of the glucocorticoid receptor (GR) signaling pathway - cell viability counter screen (AID 720693); also: nearly all actives have a fitted effect of over 55% in size
# [5] = qHTS assay to identify small molecule antagonists of the androgen receptor (AR) signaling pathway using the MDA cell line - cell viability counter screen (AID 743041; also: nearly all actives have a fitted effect of over 45% in size)
# Summary of the method: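 Using the breast carcinoma line MDA-kb2 AR-luc, test chemicals were co-incubated with R1881 for 16 h; CellTiter-Fluor reagent, added at 15.5 h, provided a fluorescence measure of live cells.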
# [6] = qHTS assay to identify small molecule antagonists of the constitutive androstane receptor (CAR) signaling pathway - cell viability counter screen (AID 1224837); also: nearly all actives have a fitted effect of over 45% in size
# Summary of the method: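 Read-out: CellTiter-Fluor fluorescence after 23 hr at 37 C/5% CO2. Cells: HepG2 double-stable for hCAR and CYP2B6-2.2kb. Compounds tested at 15 concentrations in the presence of CITCO, final concentration 50 nM.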
# [7] = qHTS assay to identify small molecule agonists of the constitutive androstane receptor (CAR) signaling pathway - cell viability counter screen (AID 1224836); also: nearly all actives have a fitted effect of over 45% in size
# Summary of the method: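 Compound titrations (15 concentrations) went onto HepG2-CYP2B6-hCAR cells 4 h after seeding, alongside PK11195 at a final 0.75 uM; a 23 h, 37 C/5% CO2 incubation preceded CellTiter-Fluor viability measurement.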
# [8] = A CellTox Green Cytotoxicity Assay to monitor cytotoxicity in HEK293 cells - 24 hour (AID 1224875); also: nearly all actives have a fitted effect of over 45% in size
# Summary of the method: (§1)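 Read-out: fluorescence of a cell-impermeant cyanine dye staining DNA of dead cells, proportional to cytotoxicity. HEK293, 600 cells/well with reagent, compound (23 nL DMSO) added after 5 h; reads at 0, 8, 16, 24, 32, 40 h.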
# [9] = A CellTox Green Cytotoxicity Assay to monitor cytotoxicity in HEK293 cells - 16 hour (AID 1224888); also: nearly all actives have a fitted effect of over 35% in size
# Summary of the method: as §1
# [10] = qHTS assay to identify small molecule antagonists of the estrogen receptor alpha (ER-alpha) signaling pathway using the BG1 cell line in the presence of 0.1 nM 17-beta-estradiol - cell viability counter screen (AID 1259241); also: nearly all actives have a fitted effect of over 40% in size
# Summary of the method: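 CellTiter-Fluor read (30 min, 37C) on ER-alpha/ERE-luc VM7Luc4E2 cells; 22 hr compound treatment; agonist 0.1 nM E2 final; same-well multiplex.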
# [11] = qHTS assay to identify small molecule antagonists of the TGF-beta/Smad signaling pathway - cell viability counter screen (AID 1346824); also: nearly all actives have a fitted effect of over 50% in size
# Summary of the method: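 Cytotoxicity counter-screen run in the same wells as the beta-lactamase Smad reporter read: CellTiter-Glo luminescence after 30 min at room temperature. HEK 293T SBE-bla cells had 5 hr compound exposure at 37 C with TGF-beta1 (0.25 ng/mL stock).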
# Potency is read from the fitted curve at half-maximal effect.
smiles,measurement,setting,value
Oc1ccc2cc(SSc3ccc4cc(O)ccc4c3)ccc2c1,Potency,[1],inactive [sample A] and active: 61.1 µM [sample B]
same,Potency,[2],inactive [sample A] and active: 21.9 µM [sample B]
Cc1ccc(O)c(C(C)(C)C)c1,Potency,[3],active: 54.4 µM [sample A] and inactive [sample B]
same,Potency,[4],active: 24.5 µM [sample A] and inactive [sample B]
same,Potency,[5],active: 61 µM [sample A] and inactive [sample B]
same,Potency,[1],active: 19.3 µM [sample A] and inactive [sample B]
CC(C)(C)CC(C)(C)c1ccc(OCCOCC[N+](C)(C)Cc2ccccc2)cc1,Potency,[6],active: 68.5 µM [sample A] and inactive [sample B]
CC(=O)N1CCN(c2ccc(OC[C@H]3CO[C@](Cn4ccnc4)(c4ccc(Cl)cc4Cl)O3)cc2)CC1,Potency,[3],inactive [sample A] and active: 48.6 µM [sample B]
same,Potency,[5],inactive [sample A] and active: 61.1 µM [sample B]
Clc1ccccc1C(c1ccccc1)(c1ccccc1)n1ccnc1,Potency,[3],inactive [sample A] and active: 54.5 µM [sample B]
same,Potency,[7],active: 30.6 µM [sample A] and inactive [sample B]
same,Potency,[6],active: 27.3 µM [sample A] and inactive [sample B]
same,Potency,[8],active: 49 µM [sample A] and inactive [sample B]
same,Potency,[9],active: 49 µM [sample A] and inactive [sample B]
same,Potency,[10],active: 61.1 µM [sample A] and inactive [sample B]
same,Potency,[11],active: 49 µM [sample A] and inactive [sample B]
Oc1ccc(Cl)cc1Sc1cc(Cl)ccc1O,Potency,[8],active: 43.6 µM [sample A] and inactive [sample B]
same,Potency,[9],active: 43.6 µM [sample A] and inactive [sample B]
O=C1Cc2cc(CCN3CCN(c4nsc5ccccc45)CC3)c(Cl)cc2N1,Potency,[3],inactive [sample A] and active: 29.8 µM [sample B]
CC[C@H](c1ccc(O)cc1)[C@@H](CC)c1ccc(O)cc1,Potency,[4],inactive [sample A] and active: 49 µM [sample B]
same,Potency,[2],active: 38.9 µM [sample A] and inactive [sample B]
CCCC1O[C@@H]2C[C@H]3[C@@H]4CCC5=CC(=O)C=C[C@]5(C)[C@H]4[C@@H](O)C[C@]3(C)[C@]2(C(=O)CO)O1 (stereo partly drawn),Potency,[1],inactive [sample A] and active: 61.2 µM [sample B] and active: 48.6 µM [sample C]
O=C(OC[C@H]1O[C@@H](OC(=O)c2cc(O)c(O)c(OC(=O)c3cc(O)c(O)c(O)c3)c2)[C@H](OC(=O)c2cc(O)c(O)c(OC(=O)c3cc(O)c(O)c(O)c3)c2)[C@@H](OC(=O)c2cc(O)c(O)c(OC(=O)c3cc(O)c(O)c(O)c3)c2)[C@@H]1OC(=O)c1cc(O)c(O)c(OC(=O)c2cc(O)c(O)c(O)c2)c1)c1cc(O)c(O)c(OC(=O)c2cc(O)c(O)c(O)c2)c1,Potency,[3],active: 9.44 µM [sample A] and inactive [sample B]

# — PubChem BioAssay (Tox21)
